Source: PubChem BioAssay AID1030 (National Center for Advancing Translational Sciences (NCATS), 2008)
Hit rate of the full screen: of about 220,000 compounds, about 16,000 (7.3%) were called active. This list was built around the results that the source calls inconclusive (neither active nor inactive); the mix of calls is not that of the screen. Calls follow the shape of the dose curve; as a rule, active = well fitted inhibition curve with a large enough effect (not every such curve was filed as active); inconclusive = small, poorly fitted or top-dose-only effect, or another doubt; inactive = no such curve, though single readings can be large or run the other way. Potencies of inconclusive entries are left out as doubtful fits.

molecular target: Aldehyde dehydrogenase 1A1 (Homo sapiens) (UniProt P00352); test: qHTS Assay for Inhibitors of Aldehyde Dehydrogenase 1 (ALDH1A1); conditions: Purified ALDH1A1, NADH fluorescence, propionaldehyde substrate; series mostly up to 75.3 µM;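 as to activity, negative = inhibition: plate controls were no enzyme wells and a reference inhibitor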
Sequence of UniProt P00352 (P00352 whole entry, looked up): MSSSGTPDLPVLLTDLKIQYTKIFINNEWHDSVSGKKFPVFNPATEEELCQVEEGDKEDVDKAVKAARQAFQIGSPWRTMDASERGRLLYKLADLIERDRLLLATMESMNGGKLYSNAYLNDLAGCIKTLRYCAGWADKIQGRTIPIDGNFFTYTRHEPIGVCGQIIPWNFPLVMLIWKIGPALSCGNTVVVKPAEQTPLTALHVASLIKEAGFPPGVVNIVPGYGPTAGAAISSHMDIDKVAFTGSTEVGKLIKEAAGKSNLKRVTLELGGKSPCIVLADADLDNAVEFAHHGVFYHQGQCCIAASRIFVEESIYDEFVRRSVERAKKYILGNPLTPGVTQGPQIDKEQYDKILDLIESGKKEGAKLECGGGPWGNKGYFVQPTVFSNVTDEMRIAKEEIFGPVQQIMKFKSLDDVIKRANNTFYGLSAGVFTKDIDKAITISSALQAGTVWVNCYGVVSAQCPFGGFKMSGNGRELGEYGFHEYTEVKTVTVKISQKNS
Potency is read from the fitted curve at half-maximal effect; tags tell the direction and shape of the fitted curve.

Row | Compound | Potency | activity, negative = inhibition
1 | COc1cccc(-n2c(-c3ccc4[nH]c(C)c(C)c4c3)n[nH]c2=S)c1 | inconclusive [inhibitor, single point] | –
2 | CCCCOC(=O)Nc1ccc(C(N)=O)cc1 | inactive | –
3 | S=C(NCCCc1cnc[nH]1)NCCCN(Cc1ccc(Cl)c(Cl)c1)c1ccc(Br)cn1 | inactive | –
4 | Cn1cnnc1SCc1ccc(C(=O)n2ncc(C#N)c2N)cc1 | inactive | –
5 | COc1cccc(-n2c(SCC(N)=O)nc3c([nH]c4ccccc43)c2=O)c1 | inconclusive [inhibitor, single point] | –
6 | O=C(Nc1cccc2nsnc12)c1ccc(F)cc1 | inconclusive [inhibitor, single point] | –
7 | CCOc1ccc(C2C=C(c3ccccc3)Nc3ncnn32)cc1 (stereo not drawn) | inconclusive [inhibitor, partial curve] | –
8 | CC(C)NS(=O)(=O)c1ccc(OCC(=O)N2CCc3ccccc3C2)cc1 | inconclusive [inhibitor, single point] | –
9 | COc1cc(/C=N/NC(=O)C(Cc2c[nH]c3ccccc23)NC(=O)OCc2ccccc2)cc([N+](=O)[O-])c1O (stereo not drawn) | inconclusive [inhibitor, single point] | –
10 | CC(Sc1nncs1)C(=O)Nc1ccc(Cl)cn1 (stereo not drawn) | inactive | –
11 | O=C(CSc1ccccc1C(=O)O)NC1CCCCCCC1 | inconclusive [inhibitor, single point] | –
12 | Cc1cc(=O)oc2cc(NC(=O)C3COc4ccccc4O3)ccc12 (stereo not drawn) | inconclusive [inhibitor, full curve] | –
13 | Cc1ccc(CN2CCN(Cc3ccc(C)o3)[C@@H](C)C2)o1 | – | inactive: 5.19% [at 13.5 µM]
14 | Cn1cnc([N+](=O)[O-])c1Nc1ccc(O)cc1 | active: 25.1 µM | –
15 | O=C(CN1CCN(Cc2ccccc2)CC1)Nc1ccc(Cl)cn1 | inconclusive [inhibitor, single point] | –
16 | CC1(C(=O)NCc2ccc(F)cc2)Oc2ccccc2NC1=O (stereo not drawn) | inactive | –
17 | C(=N\Nc1nc2ccccc2s1)/c1cccs1 | inactive | –
18 | CC(C)NC(=O)c1sc2nc(-c3cccs3)cc(-c3cccs3)c2c1N | inconclusive [inhibitor, single point] | –
19 | CCN(CC)c1ccc(C(=O)NC(=S)N2CCN(Cc3ccc4c(c3)OCO4)CC2)cc1 | inconclusive [inhibitor, single point] | –
20 | CCOc1ccc(C(=O)Nc2ccc(-c3cc4ccccc4oc3=O)c(C)c2)cc1[N+](=O)[O-] | inactive | –
21 | COc1ccc(Cl)cc1Nc1nc(NCCO)nc(N2CCCC2)n1 | inactive | –
22 | CCOc1ccc(S(=O)(=O)N2c3ccccc3CC2C)cc1 (stereo not drawn) | inconclusive [inhibitor, partial curve] | –
23 | CN1CCC(=NNC(=O)c2cn(-c3ccccc3)nc2-c2ccccc2)CC1 | active: 1.26 µM | –
24 | COCCNC(=O)c1ccc(C(=O)NCCOC)s1 | inactive | –

Row | Compound | Potency | activity, negative = inhibition
25 | CC(=O)c1ccc(NC(=O)CSc2nc(N)c3cc4c(nc3n2)CCCC4)cc1 | inconclusive [inhibitor, partial curve] | –
26 | CC(C)(C)C(=O)OCOC(=O)[C@@H]1N2C(=O)[C@@H](NC(=O)[C@H](N)c3ccccc3)[C@H]2SC1(C)C | inactive | –
27 | Cc1ccc(S(=O)(=O)c2ccc(NN)cc2)cc1 | inconclusive [inhibitor, single point] | –
28 | O=C1c2ccccc2NC(c2ccccc2Br)N1CCCN1CCOCC1 (stereo not drawn) | inconclusive [inhibitor, single point] | –
29 | CCOc1ccc(N(CC(=O)NCCCOC)S(C)(=O)=O)cc1 | inconclusive [inhibitor, single point] | –
30 | O=[N+]([O-])c1ccc(Nc2ccc(N3CCOCC3)cc2)c([N+](=O)[O-])c1 | inactive | –
31 | CC(C)(C)CNc1cc(N2CCOCC2)ccc1[N+](=O)[O-] | inconclusive [inhibitor, single point] | –
32 | Cc1cccc(NC(=O)c2ccc(C3SCC(=O)N3CCc3ccccc3)cc2)c1 (stereo not drawn) | inconclusive [inhibitor, single point] | –
33 | CCOC(=O)C1=NN(C(=O)c2cccc(Br)c2)C(O)(C(C)(C)C)C1 (stereo not drawn) | inconclusive [inhibitor, partial curve] | –
34 | O=C(CN(c1ccc(Cl)c(C(F)(F)F)c1)S(=O)(=O)c1ccccc1)N1CCOCC1 | inconclusive [inhibitor, single point] | –
35 | c1c2c(cc3sc(N4CCOCC4)nc13)OCO2 | active: 10 µM | –
36 | COc1ccc(NC(C)C(=O)Nc2ccc(C(C)(C)C)cc2)cc1Cl (stereo not drawn) | inconclusive [inhibitor, single point] | –
37 | CCCCNC(=S)Nc1ccccc1Cc1ccccc1 | inactive | –
38 | Cc1ccc(S(=O)(=O)N[C@H](C(=O)OCC(=O)N2N=C(c3ccc(Cl)cc3)CC2c2ccco2)C(C)C)cc1 (stereo partly drawn) | inactive | –
39 | CS(=O)(=O)N1CCC2(CCN(Cc3ccncc3)CC2)CC1 | inactive | –
40 | NC1(C(=O)O)CCC1 | inactive | –
41 | CCOC(=O)Cc1nnc(NC(=O)c2ccccc2OC)s1 | inconclusive [inhibitor, partial curve] | –
42 | CCCC(=O)NC(=S)Nc1cccc(NC(=O)c2ccc(Cl)cc2Cl)c1 | inactive | –
43 | CCn1c(SCC(=O)Nc2ccc(C(C)=O)cc2)nc2nc3c(cc2c1=O)CCCC3 | active: 0.891 µM | –
44 | N#CCC(=O)N/N=C/c1cc([N+](=O)[O-])ccc1N1CCCC1 | inconclusive [inhibitor, partial curve] | –
45 | Cc1ccccc1NC(=O)CCCSc1nc2ccccc2s1 | inconclusive [inhibitor, partial curve] | –
46 | CCN(Cc1ccccc1)S(=O)(=O)c1ccc(C(=O)Nc2nnc(-c3ccccc3OC)o2)cc1 | inconclusive [inhibitor, single point] | –
47 | Cc1cccc(-n2c(SCC(=O)Nc3nnc(C)s3)nnc2-c2ccoc2C)c1 | inconclusive [inhibitor, partial curve, poor fit] | –
48 | O=C(Nc1nc2c(F)cc(F)cc2s1)C1CC(=O)N(Cc2ccco2)C1 (stereo not drawn) | active: 14.1 µM | –
